Experimental findings from PubChem BioAssay AID1240 (Sanford-Burnham Center for Chemical Genomics, 2008) are described below.

Structures are written as SMILES. Out of some 50,000 compounds screened, about 800 (1.6%) showed an effect of 50% or more. The list shows a part of the results.

This test has as its target Bcl-2-like protein 10 (Homo sapiens) (UniProt Q9HD36). Put plainly: Phenotype converters, Bcl-B/TR3 peptide binding displacement, primary biochemical FP (AID 1240).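 Also: 0% = Bcl-B with tracer peptide and DMSO and 100% = tracer peptide lacking Bcl-B.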 To be noted: GST-Bcl-B / FITC-TR3 peptide fluorescence polarization; stronger effect = higher value; compound at 3.75 mg/L. (In fluorescence polarisation assays a small probe gives low polarisation when free and higher when bound to something large.)
UniProt Q9HD36, sequence (Q9HD36 whole entry, looked up): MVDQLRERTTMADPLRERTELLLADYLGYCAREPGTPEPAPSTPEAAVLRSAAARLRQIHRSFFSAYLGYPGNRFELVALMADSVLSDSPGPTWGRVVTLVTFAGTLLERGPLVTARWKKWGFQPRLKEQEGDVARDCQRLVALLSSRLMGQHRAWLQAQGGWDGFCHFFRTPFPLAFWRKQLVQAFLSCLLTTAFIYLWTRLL
For the compound `Cc1cc(C)cc(OCC(O)CN2CCC(C)CC2)c1` (stereo not given), the displacement was 1.6%.

Consider `COc1ccc(Cl)cc1C(=O)NC(C)c1ccccc1` (stereo not given), for which the displacement was -7%.

Consider `CC1=C(C)CC2C(=O)N(c3cccc(C)c3)C(=O)C2C1` (stereo not given), for which the displacement was 8.7%.

For `COc1cc(/C=N/NC(=O)CNC(=O)C(c2ccccc2)c2ccccc2)ccc1O`, the displacement worked out at 2.8%.

In the case of `Cc1ccc(/C=C(/NC(=O)c2ccccc2I)C(=O)Nc2ccccc2)o1`, the displacement was found to be 21%.

For `O=C(Nc1ccc2nn(-c3ccc(F)cc3)nc2c1)c1cc(I)ccc1Cl`, the displacement was -5.8%.

With `Cc1ccc(-c2ccc(NC(=O)c3ccccc3)cc2)o1`, the displacement was determined as 11.7%.

Take `CC(=O)Nc1cc(-c2cccc(Br)c2)nn1-c1ccccc1`: the displacement was -9.7%.

Regarding `COc1ccc(C)cc1Nc1cc(C)c2ccccc2n1`, the displacement was 0.9%.

With `O=C(Nc1ccc(NC(=S)NC(=O)c2ccco2)cc1)c1ccccc1`, the displacement is -2.4%.

For the compound `COc1ccc(OCCNC(=O)c2ccc(C)cc2)cc1`, the displacement is 9.8%.

As to `COc1cc(F)ccc1S(=O)(=O)N1CCN(c2ccccc2)CC1`, the displacement turned out to be 2.1%.

As for `CCCC(=O)Nc1cc(C(F)(F)F)cc(C(F)(F)F)c1`, the displacement stood at 21.2%.

For `Cc1ccccc1NC(=O)CCc1ccccc1`, the displacement came to 11.1%.

Regarding `COc1cccc(OC)c1C(=O)Nc1ccc(-c2ccc(NC(=O)c3c(OC)cccc3OC)c(Cl)c2)cc1Cl`, the displacement amounted to 4.2%.

In the case of `COc1ccccc1N1CCN(/N=C\c2ccc(OC)c(OC)c2OC)CC1`, the displacement was -11.7%.

Turning to `COc1ccc(/C=C2/C(C)=C(C#N)c3nc(N)c(C#N)c(C)c32)cc1OC`, the displacement is 0.9%.

In the case of `CC(C)COc1ccc2c(c1)c1c3c(nccn32)CCC1`, the displacement stood at 26.9%.

Consider `COc1cc(C(=O)O/N=C2\CCCc3c2ccc(OC)c3[N+](=O)[O-])cc(OC)c1OC`, for which the displacement stood at 4.3%.

Take `CCOC(=O)C(C#N)C1(c2ccc(F)cc2)CCOC(C)(CC)C1` (stereo not given): the displacement is -5.7%.

As to `CCCCOc1ccccc1NC1=NS(=O)(=O)c2ccccc21`, the displacement is 7.9%.

Consider `COc1ccc(C)cc1NC(=O)c1ccc(OC)c([N+](=O)[O-])c1`, for which the displacement was 5%.

On to `CCOc1ccc(C(NC=O)c2ccc(OC)cc2)cc1` (stereo not given), for which the displacement is -9.3%.

`Cc1cc(C)c2nc3s/c(=C/c4ccc(-c5cccc(Cl)c5)o4)c(=O)n3c2c1`: the displacement is -0.7%.

In the case of `CN(Cc1ccccc1)C(=O)COc1ccc(-c2ccccc2)cc1`, the displacement is -4%.

As to `O=C(CSC1CC(=O)N(c2ccc(F)cc2)C1=O)Nc1ccc2ccccc2c1` (stereo not given), the displacement was -5%.

On to `N#Cc1c(-c2ccc(O)cc2)c(C#N)c2nc3ccccc3n2c1N`, for which the displacement was 12.5%.

`CC1=C(C(=O)OCc2ccccc2)C(c2ccccc2C(F)(F)F)CC(=O)N1` (stereo not given): the displacement was -10.6%.

Turning to `O=C(/C=C/c1ccc(-c2cccc(Br)c2)o1)c1cccs1`, the displacement was determined as 6.5%.

For the compound `CC(=O)Nc1cc(-c2nc3ccccc3s2)ccc1Cl`, the displacement was 11.6%.

Turning to `Cc1cccc(CSCc2nnc(NC(=O)Nc3cccc(Cl)c3)s2)c1`, the displacement is 5.4%.

Take `CCC(=O)NC(Cc1ccc(OC)c([N+](=O)[O-])c1)C(=O)O` (stereo not given): the displacement was found to be 3.3%.

Turning to `O=C(O)C1C2C=CC(C2)C1C(=O)NCCC1=CCCCC1` (stereo not given), the displacement was -11.4%.

As for `Cc1cc(O)ccc1Nc1nc2ccccc2nc1Nc1ccc(O)cc1C`, the displacement is -5.9%.

For the compound `Clc1ccccc1CSc1ncnc2nc[nH]c12`, the displacement is -11.6%.

For the compound `Nc1cccc(C2=Nc3cccc4cccc(c34)N2)c1`, the displacement is -2.9%.

Turning to `COc1cccc(C(=O)Nc2ccc(-c3cc4ccccc4oc3=O)cc2)c1`, the displacement turned out to be 12.7%.

Regarding `Oc1ccccc1-c1cc(-c2ccccc2)nc(N2CCCC2)n1`, the displacement is -8%.

Regarding `Cc1ccc(NCCC(=O)c2cccc([N+](=O)[O-])c2)cc1Cl`, the displacement turned out to be 17.8%.

Take `Cc1cc(OCC(=O)N2CCC(C(N)=O)CC2)ccc1Br`: the displacement came to 1.4%.

Turning to `O=S(=O)(Nc1ccc(OCc2ccccc2)cc1)c1ccc2ccccc2c1`, the displacement stood at 3.1%.

In the case of `O=[N+]([O-])c1ccc(-c2ccco2)c(Cl)c1`, the displacement came out at 15.2%.

On to `COc1cc(Br)cc(/C=C(\C#N)C(=O)NC2CCCCC2)c1O`, for which the displacement was -5.3%.

As to `O=c1c2cnn(-c3ccccc3)c2nc(Cc2ccccc2)n1Cc1ccccc1`, the displacement was 7.8%.

As to `Cc1cccc(OCC(=O)NCCc2ccccc2)c1`, the displacement was -12.7%.

With `CCOC(=O)c1c(CC(C)C)csc1NC(C)=O`, the displacement is -3.3%.

Turning to `O=C(Nc1ccc(F)cc1)c1ccc(C#Cc2ccccc2)cc1`, the displacement is -6.6%.

For the compound `O=C1c2ccccc2C(=O)N1CC(O)Cn1c2ccccc2c2ccccc21` (stereo not given), the displacement was 9.1%.

As to `NCCCSc1nc2c(c(=O)n1Cc1ccccc1)C1(CCCCC1)Cc1ccccc1-2`, the displacement is -10.3%.

Consider `Cc1ccc2[nH]c3nc(N/N=C/c4ccc(-c5ccc(Cl)cc5)o4)nnc3c2c1`, for which the displacement is -3%.

On to `COc1ccc2[nH]cc(CCNC=O)c2c1`, for which the displacement was 2.9%.

On to `CC(C)CCOc1cccc(C(=O)Nc2ccc(Cl)c(NC(=O)c3ccccc3)c2)c1`, for which the displacement came out at 17.9%.

As for `CC(=O)Oc1ccc(Cl)cc1N1C(=O)c2ccc([N+](=O)[O-])cc2C1=O`, the displacement was found to be 11.4%.

As to `CCOc1ccc(N=Nc2c(C)[nH]n(-c3nc(-c4ccccc4)cs3)c2=O)cc1`, the displacement is -5.4%.

For `O=C(Nc1nc(-c2ccc(F)cc2)cs1)c1ccc2c(c1)OCO2`, the displacement was -7.7%.

For the compound `Cc1ccc(C(C)C)c(OCCNC(=S)Nc2cccc3ccccc23)c1`, the displacement is -22.4%.

`O=C(NNS(=O)(=O)c1ccc(F)cc1)c1cccc(Br)c1`: the displacement was -11.5%.

With `CCCCCOC(=O)Nc1ccc(S(=O)(=O)Nc2ccc([N+](=O)[O-])cc2)cc1`, the displacement worked out at 1.4%.

With `CCOc1ccc(C(=O)Nc2ccc3oc(-c4ccccc4F)nc3c2)cc1`, the displacement amounted to 0.4%.

For the compound `COc1ccc(S(=O)(=O)N2CCN(C(=O)c3cccc(OC)c3)CC2)cc1`, the displacement was 9.2%.

Consider `CNC(=O)C(=O)Nc1ccc(C)c(C)c1`, for which the displacement was 1.4%.

For the compound `CCOc1ccc(NC(=O)C(=O)NC(C)c2ccc(OC)cc2)cc1` (stereo not given), the displacement is 4.5%.

For the compound `CC1(C)CC(N=Cc2c(-c3ccccc3)[nH]n(-c3nc4ccccc4s3)c2=O)CC(C)(C)N1`, the displacement was -5.4%.

In the case of `O=C(Nc1ccc(Cl)cc1)C1CC(=O)N(c2ccc(Br)cc2)C1` (stereo not given), the displacement was -3%.

Consider `Cc1ccc(C2/C(=C(/O)c3ccc(Cl)cc3)C(=O)C(=O)N2c2nccs2)cc1` (stereo not given), for which the displacement is 12.3%.

As to `Cc1cc(C)c(C(=O)/C=C/c2ccc(-c3ccccc3)o2)cc1C`, the displacement was -6.5%.

Take `Clc1ccc(CN2CCN(/N=C/c3ccc(Cl)c(Cl)c3)CC2)cc1`: the displacement was determined as 15.1%.

For `COc1ccc(/C=N/Nc2nnc(-c3ccccc3)c(-c3ccccc3)n2)c(OC)c1`, the displacement is 2.4%.

For `Cc1nn(CC(=O)N2CCCC2)c(C)c1[N+](=O)[O-]`, the displacement was 6.1%.

On to `Cc1ccc2nc(-c3ccc(C)c(NC(=O)c4cccc([N+](=O)[O-])c4C)c3)oc2c1`, for which the displacement was found to be 15.9%.

Regarding `CCOc1ccc(C2C3(OC(c4ccc(Cl)cc4)C24C(=O)c2ccccc2C4=O)C(=O)c2ccccc2C3=O)cc1` (stereo not given), the displacement amounted to 11.2%.

Take `COc1ccc(CCNC(=O)C(=O)Nc2cc(C)ccc2C)cc1`: the displacement was -14.3%.

As to `c1cc2c(cc1NC1CCCCC1)OCO2`, the displacement is 130%.

As for `CC1=NCCN1S(=O)(=O)c1ccccc1[N+](=O)[O-]`, the displacement was -0.2%.

`CC(=O)c1ccc(NC(=S)NC(NC(=O)N(C)C)C(Cl)(Cl)Cl)cc1` (stereo not given): the displacement is -0.7%.

With `CN(C)CCN1C(=O)C(=O)/C(=C(/O)c2ccccc2)C1c1ccc(O)cc1` (stereo not given), the displacement was -17.1%.

Take `COc1cc(C2C3C(=O)N(c4ccccc4C(F)(F)F)C(=O)C3ON2c2ccccc2)ccc1O` (stereo not given): the displacement was -8.4%.

Consider `COc1cc(/C=C2\C(=O)NC(=O)N(C)C2=O)ccc1OCc1ccc(C(=O)O)cc1`, for which the displacement came out at 5.5%.

For `CSc1ccc(S(=O)(=O)N(CC(=O)Nc2cccc(Br)c2)c2ccc(C)cc2)cc1`, the displacement is 12.6%.

Consider `COc1ccc(OC)c(NC(=O)C2C3CCC(C3)C2C(=O)O)c1` (stereo not given), for which the displacement amounted to 15.9%.

With `CC1=C(C(=O)OCCc2ccccc2)C(c2cccc(Cl)c2)CC(=O)N1` (stereo not given), the displacement was 3.9%.

For the compound `COc1ccc(C(=O)c2c(C)oc3c2cc(OC)c2ccccc23)cc1`, the displacement is -4.9%.

Consider `COc1cccc(OC)c1C(=O)NNC(=O)c1cccc(Cl)c1`, for which the displacement was -5.4%.

Regarding `CCCOC(=O)c1ccc(NC(=O)C(c2ccccc2)c2ccccc2)cc1`, the displacement amounted to 3.5%.

Take `O=C1C=CC(=NS(=O)(=O)c2ccc(F)cc2)C=C1`: the displacement is -9.6%.

Consider `CC1=C(C#N)C(c2cc3c(cc2[N+](=O)[O-])OCO3)C2=C(CC(C)(C)CC2=O)N1` (stereo not given), for which the displacement is -1.9%.

Consider `COc1ccc(N(CC(=O)NCCSc2nc3ccccc3s2)S(=O)(=O)c2ccccc2)c(OC)c1`, for which the displacement was found to be 10.6%.

Turning to `Cc1ccc(NC(=O)c2ccc(CN(c3ccccc3)S(C)(=O)=O)cc2)cc1Cl`, the displacement is -14.3%.

Consider `CN(C)c1ccc(/C=C/C=C2/SC(N)=NC2=O)cc1`, for which the displacement is -17.2%.

In the case of `CCOC(=O)c1c(N2C(=O)C3CC(C)=C(C)CC3C2=O)sc2c1CCCC2` (stereo not given), the displacement was -13.4%.

Turning to `N#CC1=C(SCC(=O)Nc2ccc(Cl)cc2)NC(=O)CC1c1ccccc1Cl` (stereo not given), the displacement is -6.5%.

As to `O=[N+]([O-])c1cccc(N/N=C/c2ccc3c(c2)OCO3)c1`, the displacement was -11.3%.

Consider `O=S(=O)(Oc1ccccc1)c1ccc(F)cc1`, for which the displacement is -1.2%.

With `CCn1cc(C(=O)O)c(=O)c2cc(-c3ccco3)ccc21`, the displacement was found to be 18.2%.

In the case of `Cc1sc2nc(SCC(=O)NCc3ccco3)[nH]c(=O)c2c1C`, the displacement is -10.3%.

For the compound `O=C1c2ccc(-c3nc4ccccc4o3)cc2C(=O)N1CC1CCCO1` (stereo not given), the displacement stood at 11.1%.

For the compound `CCOc1cc(/C=N/NC(=O)c2ccncc2)ccc1OC(=O)c1ccco1`, the displacement was 6.5%.

Regarding `CCC(=O)Nc1cc(-c2nc3ncccc3o2)ccc1C`, the displacement is -1.8%.

In the case of `O=C(NC(=S)Nc1ccc(NC(=O)c2ccco2)cc1)c1ccc(Cl)cc1`, the displacement is -16.3%.

In the case of `COc1cccc(C(=O)Nc2sc(C)c(C)c2C(N)=O)c1`, the displacement came to 5.8%.

For `O=C1c2ccccc2-c2onc3ccc(Cl)c1c23`, the displacement was 40.4%.

Regarding `COc1ccc(CC(=O)N2CCN(c3ccccc3)CC2)cc1OC`, the displacement stood at 9%.

On to `CC(=O)c1c(N2CCCCC2)nc(=S)n(-c2ccccc2)c1C`, for which the displacement was found to be 0.5%.

Turning to `CC(C)CC(=O)N1CCN(CCCc2ccccc2)CC1`, the displacement was 5.5%.

With `CCOc1ccccc1C(=O)Nc1cc(C(F)(F)F)ccc1Cl`, the displacement worked out at 1.5%.

As for `Clc1ccc(C2NN=C(c3ccccc3)S2)cc1` (stereo not given), the displacement is 0%.

`C#Cc1cccc(NC(=O)CN2C(=O)c3ccccc3C2=O)c1`: the displacement was -4.5%.

As for `O=C(N/N=C/c1ccc2c(c1)OCO2)c1sc2cc(Cl)ccc2c1Cl`, the displacement was determined as 8.9%.

For `CC(C)CCN(CCC(C)C)C(CO)(CO)CO`, the displacement was -4.2%.

As for `Cc1cccc(NS(=O)(=O)c2ccc(Cl)cc2)n1`, the displacement is -10.3%.
